# In the supplement of paper PMC8728848:
# The list shows a part of the results.
# B1: PX9896A-bth-573-26-573 (Bacteroides thetaiotaomicron) (protein)
# chain: ETNNLKTKEDMYKYFGTSKSMLTHVYSYMPQGYQLFATSGGIFTEDRYSMRDCASDDGEFGAYADNIQNTNNGNWSPIKTYDDSWTLYRGIRAANSFIAEIAQVDFTRYEHDGQYTNWMKQLKYFPYEARVLRAHYFFELARRYGDIAMPLEVLTEEEANTIGKTPFSEVISFIVSECDDAANNLPDSYVNEPGAEIGRVTKGFAMAVKSKALLYAASKLHNPSMDTELWKKSAKAAIDIINTGLYSLDPQESANNLDSKEVVLMRINGDDSDFEMFNLPLRMTAGTRTSSLIPYSNYPSQNLVDAFETVNGYKVTLENTGWVCEDPAFDPQSPYENRDKRFYRAILANGMSFKDYTIETFKGGADDGIVSQGGSPTGYFLRKYIQEATSFEPGKEAVSKHHWVIYRYAETLLTYAESMVNAFNDVNYTDETYKYSALWAINEVRKNADMPLIPSMGKDEFMERLYNEWRVEFAFEDHRFWDVRRWKIADTTQRELYGVKIEKQADGTFNFYKNLYETRNWRDCMYLYPIPQSELYKNTNLNPQNTGW
# Legend:
# Experiment in all cases: glycan array binding signal (z-score within array); higher = stronger binding
# Conditions in all cases: glycan notation: IUPAC condensed, linker removed
# [1] = biological target: Neu5Ac(a2-3)Gal(b1-3)[Fuc(a1-4)]GlcNAc
# How it was run: (§1)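 The Consortium for Functional Glycomics database supplied 3228 glycan arrays, of which those lacking an available protein sequence were dropped. The binding signal, a within-array Z-score, was averaged across arrays of the same protein sequence and across linkers. Negative scores can be read as non-binding.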
# [2] = biological target: Neu5Ac(a2-3)Gal(b1-3)[Fuc(a1-4)]GlcNAc(b1-3)Gal(b1-3)[Fuc(a1-4)]GlcNAc
# How it was run: as §1
# [3] = biological target: Neu5Ac(a2-3)Gal(b1-3)[Fuc(a1-4)]GlcNAc(b1-3)Gal(b1-4)[Fuc(a1-3)]GlcNAc
# How it was run: as §1
# [4] = biological target: Neu5Ac(a2-3)Gal(b1-3)[GlcNAc(b1-6)]GalNAc
# How it was run: as §1
# [5] = biological target: Neu5Ac(a2-3)Gal(b1-3)[Neu5Ac(a2-6)]GalNAc
# How it was run: as §1
# [6] = biological target: Neu5Ac(a2-3)Gal(b1-3)[Neu5Ac(a2-6)]GlcNAc(b1-3)[Fuc(a1-3)[Gal(b1-4)]GlcNAc(b1-6)]Gal(b1-4)Glc
# How it was run: as §1
# [7] = biological target: Neu5Ac(a2-3)Gal(b1-3)]Neu5Ac(a2-3)Gal(b1-4)]GlcNAc
# How it was run: as §1
# Neu5Ac(a2-3)Gal(b1-4)Glc = biological target: Neu5Ac(a2-3)Gal(b1-4)Glc
# How it was run: as §1
# [8] = biological target: Neu5Ac(a2-3)Gal(b1-4)GlcNAc
# How it was run: as §1
# [9] = biological target: Neu5Ac(a2-3)Gal(b1-4)GlcNAc(b1-2)Man
# How it was run: as §1
# [10] = biological target: Neu5Ac(a2-3)Gal(b1-4)GlcNAc(b1-2)Man(a1-3)[GlcNAc(b1-4)][Neu5Ac(a2-3)Gal(b1-4)GlcNAc(b1-2)Man(a1-6)]Man(b1-4)GlcNAc(b1-4)GlcNAc
# How it was run: as §1
# [11] = biological target: Neu5Ac(a2-3)Gal(b1-4)GlcNAc(b1-2)Man(a1-3)[Neu5Ac(a2-3)Gal(b1-4)GlcNAc(b1-2)Man(a1-6)]Man(b1-4)GlcNAc(b1-4)GlcNAc
# How it was run: as §1
# [12] = biological target: Neu5Ac(a2-3)Gal(b1-4)GlcNAc(b1-2)Man(a1-3)[Neu5Ac(a2-3)Gal(b1-4)GlcNAc(b1-2)Man(a1-6)]Man(b1-4)GlcNAc(b1-4)[Fuc(a1-6)]GlcNAc
# How it was run: as §1
# [13] = biological target: Neu5Ac(a2-3)Gal(b1-4)GlcNAc(b1-2)Man(a1-3)[Neu5Ac(a2-6)Gal(b1-4)GlcNAc(b1-2)Man(a1-6)]Man(b1-4)GlcNAc(b1-4)GlcNAc
# How it was run: as §1
# [14] = biological target: Neu5Ac(a2-3)Gal(b1-4)GlcNAc(b1-2)[Neu5Ac(a2-3)Gal(b1-4)GlcNAc(b1-4)]Man(a1-3)[GlcNAc(b1-4)][Neu5Ac(a2-3)Gal(b1-4)GlcNAc(b1-2)[Neu5Ac(a2-3)Gal(b1-4)GlcNAc(b1-6)]Man(a1-6)]Man(b1-4)GlcNAc(b1-4)GlcNAc
# How it was run: as §1
# [15] = biological target: Neu5Ac(a2-3)Gal(b1-4)GlcNAc(b1-2)[Neu5Ac(a2-3)Gal(b1-4)GlcNAc(b1-4)]Man(a1-3)[GlcNAc(b1-4)][Neu5Ac(a2-3)Gal(b1-4)GlcNAc(b1-4)Man(a1-6)]Man(b1-4)GlcNAc(b1-4)GlcNAc
# How it was run: as §1
# [16] = biological target: Neu5Ac(a2-3)Gal(b1-4)GlcNAc(b1-2)[Neu5Ac(a2-3)Gal(b1-4)GlcNAc(b1-6)]Man(a1-6)[Neu5Ac(a2-3)Gal(b1-4)GlcNAc(b1-2)Man(a1-3)]Man(b1-4)GlcNAc(b1-4)GlcNAc
# How it was run: as §1
# [17] = biological target: Neu5Ac(a2-3)Gal(b1-4)GlcNAc(b1-2)[Neu5Ac(a2-3)Gal(b1-4)GlcNAc(b1-6)]Man(a1-6)[Neu5Ac(a2-3)Gal(b1-4)GlcNAc(b1-2)Man(a1-3)][GlcNAc(b1-4)]Man(b1-4)GlcNAc(b1-4)GlcNAc
# How it was run: as §1
# [18] = biological target: Neu5Ac(a2-3)Gal(b1-4)GlcNAc(b1-3)Gal
# How it was run: as §1
# [19] = biological target: Neu5Ac(a2-3)Gal(b1-4)GlcNAc(b1-3)Gal(b1-3)GlcNAc
# How it was run: as §1
# [20] = biological target: Neu5Ac(a2-3)Gal(b1-4)GlcNAc(b1-3)Gal(b1-4)GlcNAc
# How it was run: as §1
# [21] = biological target: Neu5Ac(a2-3)Gal(b1-4)GlcNAc(b1-3)Gal(b1-4)GlcNAc(b1-2)Man(a1-3)[Neu5Ac(a2-3)Gal(b1-4)GlcNAc(b1-3)Gal(b1-4)GlcNAc(b1-2)Man(a1-6)]Man(b1-4)GlcNAc(b1-4)GlcNAc
# How it was run: as §1
# [22] = biological target: Neu5Ac(a2-3)Gal(b1-4)GlcNAc(b1-3)Gal(b1-4)GlcNAc(b1-3)Gal(b1-4)GlcNAc
# How it was run: as §1
# [23] = biological target: Neu5Ac(a2-3)Gal(b1-4)GlcNAc(b1-3)Gal(b1-4)GlcNAc(b1-3)Gal(b1-4)GlcNAc(b1-2)Man(a1-3)[Neu5Ac(a2-3)Gal(b1-4)GlcNAc(b1-3)Gal(b1-4)GlcNAc(b1-3)Gal(b1-4)GlcNAc(b1-2)Man(a1-6)]GalNAc
# How it was run: as §1
# [24] = biological target: Neu5Ac(a2-3)Gal(b1-4)GlcNAc(b1-3)Gal(b1-4)GlcNAc(b1-3)GalNAc
# How it was run: as §1
# [25] = biological target: Neu5Ac(a2-3)Gal(b1-4)GlcNAc(b1-3)Gal(b1-4)GlcNAc(b1-3)[Neu5Ac(a2-3)Gal(b1-4)GlcNAc(b1-3)Gal(b1-4)GlcNAc(b1-6)]GalNAc
# How it was run: as §1
# [26] = biological target: Neu5Ac(a2-3)Gal(b1-4)GlcNAc(b1-3)Gal(b1-4)GlcNAc(b1-6)[Gal(b1-3)]GalNAc
# How it was run: as §1
# [27] = biological target: Neu5Ac(a2-3)Gal(b1-4)GlcNAc(b1-3)Gal(b1-4)[Fuc(a1-3)]GlcNAc
# How it was run: as §1
# [28] = biological target: Neu5Ac(a2-3)Gal(b1-4)GlcNAc(b1-3)GalNAc
# How it was run: as §1
# [29] = biological target: Neu5Ac(a2-3)Gal(b1-4)GlcNAc(b1-3)[Neu5Ac(a2-3)Gal(b1-4)GlcNAc(b1-6)]GalNAc
# How it was run: as §1
binder,measurement,setting,value
B1,glycan array binding signal (z-score),[1],-0.34
same,glycan array binding signal (z-score),[2],-0.865
same,glycan array binding signal (z-score),[3],0.622
same,glycan array binding signal (z-score),[4],-0.325
same,glycan array binding signal (z-score),[5],-0.015
same,glycan array binding signal (z-score),[6],-0.084
same,glycan array binding signal (z-score),[7],0.207
same,glycan array binding signal (z-score),Neu5Ac(a2-3)Gal(b1-4)Glc,0.029
same,glycan array binding signal (z-score),[8],-0.87
same,glycan array binding signal (z-score),[9],-0.053
same,glycan array binding signal (z-score),[10],-0.598
same,glycan array binding signal (z-score),[11],-0.076
same,glycan array binding signal (z-score),[12],-0.024
same,glycan array binding signal (z-score),[13],0.15
same,glycan array binding signal (z-score),[14],-0.635
same,glycan array binding signal (z-score),[15],0.488
same,glycan array binding signal (z-score),[16],1.51
same,glycan array binding signal (z-score),[17],-0.624
same,glycan array binding signal (z-score),[18],-0.909
same,glycan array binding signal (z-score),[19],-0.723
same,glycan array binding signal (z-score),[20],-0.375
same,glycan array binding signal (z-score),[21],-0.638
same,glycan array binding signal (z-score),[22],0.33
same,glycan array binding signal (z-score),[23],1.93
same,glycan array binding signal (z-score),[24],-0.392
same,glycan array binding signal (z-score),[25],-0.459
same,glycan array binding signal (z-score),[26],-0.146
same,glycan array binding signal (z-score),[27],-0.535
same,glycan array binding signal (z-score),[28],-0.784
same,glycan array binding signal (z-score),[29],-0.456
